Assay [1] deals with T1, Chromatin Assembly Factor 1 (CAF-1) complex: Cac1, Cac2, Cac3 (Saccharomyces cerevisiae, UniProt Q12495; Q04199; P13712).
T1 construct: Cac1 (p90), subunit of CAF-1, Saccharomyces cerevisiae; Cac2 (p60), subunit of CAF-1, Saccharomyces cerevisiae; Cac3 (p48 or MSi1p), subunit of CAF-1, Saccharomyces cerevisiae; also called intact CAF-1 complex; tri-subunit CAF-1 complex; source: Sf9 insect cells co-infected with baculoviruses, purified (StrepTrap HP, Superdex 200); not shown: Strep II, C-terminal, kept; His6, C-terminal, kept; …
The assay is described as follows: fluorescence polarisation; fluorescence anisotropy; 10 nM *Asf1 (alone or pre-bound to 20 nM H3/H4) or 100 nM *Asf1^1-169, Cac2 or CAF-1 titrated; 20 mM HEPES, 150 mM NaCl, pH 7.4, 20°C. Particulars: both partners purified.

Assay [2] addresses T2, Cac2 (p60), full-length, CAF-1 subunit (budding yeast, UniProt Q04199).
T2 construct: Cac2 (p60), subunit of CAF-1, budding yeast, full length; Plasmid construction is in the Supplementary Methods; also called full-length Cac2; source: E. coli Rosetta pLysS, purified (Ni-NTA, Superdex 200)
The assay is described as above. As to conditions: both partners purified.

B1: Asf1^[…] labeled with Alexa Fluor 532 (*Asf1^[…]) (domain or fragment)
chain: not shown
modifications: Alexa Fluor 532
With B1, the values for the Kd in assay [1] and in assay [2] were 3.4 µM and 3.3 µM, respectively.

Broadly, the Kd is the constant that tells how readily two partners part at equilibrium. Read a low Kd as tighter binding.

The record behind these values is article PMC3526290, “CAF-1-induced oligomerization of histones H3/H4 and mutually exclusive interactions with Asf1 guide H3/H4 transitions among histone chaperones and DNA” (Nucleic Acids Research, 2012).
